In article PMC9619224 one finds binding data, which are given here for two molecules.

The chains behind the UniProt entries cited, without tags or fusion partners. Residues count along the entry.
UniProt P34971: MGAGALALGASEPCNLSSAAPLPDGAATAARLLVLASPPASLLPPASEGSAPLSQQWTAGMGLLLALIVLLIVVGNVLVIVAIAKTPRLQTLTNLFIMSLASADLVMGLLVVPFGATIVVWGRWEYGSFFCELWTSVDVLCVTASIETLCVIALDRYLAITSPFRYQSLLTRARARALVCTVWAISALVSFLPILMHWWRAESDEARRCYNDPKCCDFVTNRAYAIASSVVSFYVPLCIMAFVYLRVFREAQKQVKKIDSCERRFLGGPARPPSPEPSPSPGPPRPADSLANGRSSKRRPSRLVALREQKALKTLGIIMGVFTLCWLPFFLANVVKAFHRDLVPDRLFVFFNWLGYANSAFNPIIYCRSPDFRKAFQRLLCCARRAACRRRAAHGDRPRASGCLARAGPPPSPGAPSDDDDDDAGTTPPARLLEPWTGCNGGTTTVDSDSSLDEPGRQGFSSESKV
UniProt P35347, residues 24-415: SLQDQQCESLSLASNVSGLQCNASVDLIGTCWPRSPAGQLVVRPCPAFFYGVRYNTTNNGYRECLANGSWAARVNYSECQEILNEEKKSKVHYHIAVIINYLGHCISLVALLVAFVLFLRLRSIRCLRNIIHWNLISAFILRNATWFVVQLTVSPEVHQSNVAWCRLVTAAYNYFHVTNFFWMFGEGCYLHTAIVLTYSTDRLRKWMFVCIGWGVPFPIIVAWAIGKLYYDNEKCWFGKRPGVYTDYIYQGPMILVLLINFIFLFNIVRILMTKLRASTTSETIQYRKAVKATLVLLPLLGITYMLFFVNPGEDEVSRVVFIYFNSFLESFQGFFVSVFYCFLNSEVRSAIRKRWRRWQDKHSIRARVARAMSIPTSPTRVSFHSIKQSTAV
UniProt Q8BZA7: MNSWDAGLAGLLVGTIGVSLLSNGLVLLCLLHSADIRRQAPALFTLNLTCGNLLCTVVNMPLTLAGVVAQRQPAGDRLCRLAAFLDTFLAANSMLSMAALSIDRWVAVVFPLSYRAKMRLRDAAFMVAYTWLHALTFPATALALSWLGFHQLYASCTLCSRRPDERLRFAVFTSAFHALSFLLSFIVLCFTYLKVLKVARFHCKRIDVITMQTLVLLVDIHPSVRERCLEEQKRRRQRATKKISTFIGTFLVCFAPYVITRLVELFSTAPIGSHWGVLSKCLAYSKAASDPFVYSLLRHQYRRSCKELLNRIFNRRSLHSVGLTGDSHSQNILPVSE
UniProt Q8BFQ3: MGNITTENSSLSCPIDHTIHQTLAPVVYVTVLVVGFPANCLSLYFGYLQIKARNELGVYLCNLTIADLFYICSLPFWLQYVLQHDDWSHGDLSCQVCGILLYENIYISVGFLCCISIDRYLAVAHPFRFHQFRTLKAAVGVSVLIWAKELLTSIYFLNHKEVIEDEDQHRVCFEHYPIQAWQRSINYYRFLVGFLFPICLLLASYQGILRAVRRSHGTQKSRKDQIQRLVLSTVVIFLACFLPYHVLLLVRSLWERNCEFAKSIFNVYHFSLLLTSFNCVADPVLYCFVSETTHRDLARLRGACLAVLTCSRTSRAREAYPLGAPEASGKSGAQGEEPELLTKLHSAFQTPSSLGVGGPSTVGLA
UniProt Q99P50: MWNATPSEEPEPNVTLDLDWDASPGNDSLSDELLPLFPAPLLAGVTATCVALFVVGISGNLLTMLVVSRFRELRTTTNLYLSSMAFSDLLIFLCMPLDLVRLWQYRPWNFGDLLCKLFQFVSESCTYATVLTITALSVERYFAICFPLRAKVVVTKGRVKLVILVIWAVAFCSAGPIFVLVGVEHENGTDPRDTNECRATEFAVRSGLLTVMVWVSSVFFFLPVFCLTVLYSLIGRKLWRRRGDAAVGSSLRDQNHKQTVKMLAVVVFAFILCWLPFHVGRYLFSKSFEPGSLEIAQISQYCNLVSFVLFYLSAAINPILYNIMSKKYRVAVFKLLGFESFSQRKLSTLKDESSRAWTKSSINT
UniProt P56450: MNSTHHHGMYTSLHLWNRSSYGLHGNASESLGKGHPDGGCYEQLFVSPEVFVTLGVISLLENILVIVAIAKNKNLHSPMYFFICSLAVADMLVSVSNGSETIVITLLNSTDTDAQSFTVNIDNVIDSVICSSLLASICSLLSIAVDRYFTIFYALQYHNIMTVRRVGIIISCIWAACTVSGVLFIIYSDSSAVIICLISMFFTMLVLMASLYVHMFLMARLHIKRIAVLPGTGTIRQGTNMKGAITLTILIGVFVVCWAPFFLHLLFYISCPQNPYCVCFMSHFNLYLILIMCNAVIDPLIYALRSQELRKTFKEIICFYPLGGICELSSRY
UniProt P30875: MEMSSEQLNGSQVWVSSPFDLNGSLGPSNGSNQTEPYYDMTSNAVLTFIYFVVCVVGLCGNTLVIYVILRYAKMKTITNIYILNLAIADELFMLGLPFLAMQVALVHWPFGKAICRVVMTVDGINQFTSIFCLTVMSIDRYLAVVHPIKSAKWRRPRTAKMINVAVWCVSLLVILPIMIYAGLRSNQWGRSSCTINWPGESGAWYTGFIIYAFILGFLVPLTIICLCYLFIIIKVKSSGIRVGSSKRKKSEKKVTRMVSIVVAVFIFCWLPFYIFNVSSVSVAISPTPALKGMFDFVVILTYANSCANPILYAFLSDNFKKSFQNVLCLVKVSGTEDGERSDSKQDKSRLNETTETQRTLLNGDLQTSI

Holding throughout (assay): co-IP; HEK293T cells transfected with 3xHA-GPCR and 2xFlag-MRAP1 or MRAP2; GPCR immunoprecipitated with rabbit anti-HA, Protein A/G agarose, overnight at 4°C; MRAP detected by mouse anti-Flag blot
Assay [1] deals with Adrenergic receptor, beta 1 (mouse) (UniProt P34971).
Assay [2] has as its target Corticotropin releasing hormone receptor 1 (mouse) (UniProt P35347).
The target in assay [3] is T1, G protein‐coupled receptor 151 (mouse) (UniProt Q7TSN6).
T1 sequence: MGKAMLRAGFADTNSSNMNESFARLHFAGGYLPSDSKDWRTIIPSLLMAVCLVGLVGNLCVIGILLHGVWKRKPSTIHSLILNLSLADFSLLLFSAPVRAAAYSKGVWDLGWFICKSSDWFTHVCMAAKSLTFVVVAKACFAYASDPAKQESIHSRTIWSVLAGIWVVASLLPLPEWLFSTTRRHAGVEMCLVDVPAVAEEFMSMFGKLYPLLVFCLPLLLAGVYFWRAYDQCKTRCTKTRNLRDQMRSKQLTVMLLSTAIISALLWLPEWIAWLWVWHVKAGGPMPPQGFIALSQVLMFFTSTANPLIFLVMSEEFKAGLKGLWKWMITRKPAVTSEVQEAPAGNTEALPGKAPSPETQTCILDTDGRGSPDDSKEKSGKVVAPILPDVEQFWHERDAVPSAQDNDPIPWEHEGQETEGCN

Assay [4] concerns the target G protein‐coupled receptor 26 (mouse) (UniProt Q8BZA7).
The target of assay [5] is G protein‐coupled receptor 68 (mouse) (UniProt Q8BFQ3).
The target of assay [6] is Growth hormone secretagogue receptor (mouse) (UniProt Q99P50).
The target of assay [7] is Melanocortin 4 receptor (mouse) (UniProt P56450).
For assay [8], the target named is T2, Neuropeptide Y receptor Y2 (mouse) (UniProt P97295).
T2 sequence: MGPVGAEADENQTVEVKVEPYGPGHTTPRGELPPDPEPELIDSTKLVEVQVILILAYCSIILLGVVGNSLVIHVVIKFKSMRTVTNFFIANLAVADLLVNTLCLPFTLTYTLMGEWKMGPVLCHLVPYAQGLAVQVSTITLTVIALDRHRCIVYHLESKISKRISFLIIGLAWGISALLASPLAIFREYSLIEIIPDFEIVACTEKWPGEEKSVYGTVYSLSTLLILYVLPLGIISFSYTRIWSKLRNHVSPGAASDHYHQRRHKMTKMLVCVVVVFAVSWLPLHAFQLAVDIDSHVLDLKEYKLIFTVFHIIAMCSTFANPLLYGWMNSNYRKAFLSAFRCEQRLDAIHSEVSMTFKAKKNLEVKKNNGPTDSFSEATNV

Assay [9] addresses T3, Pyroglutamylated RFamide peptide receptor (mouse) (UniProt P83861).
T3 sequence: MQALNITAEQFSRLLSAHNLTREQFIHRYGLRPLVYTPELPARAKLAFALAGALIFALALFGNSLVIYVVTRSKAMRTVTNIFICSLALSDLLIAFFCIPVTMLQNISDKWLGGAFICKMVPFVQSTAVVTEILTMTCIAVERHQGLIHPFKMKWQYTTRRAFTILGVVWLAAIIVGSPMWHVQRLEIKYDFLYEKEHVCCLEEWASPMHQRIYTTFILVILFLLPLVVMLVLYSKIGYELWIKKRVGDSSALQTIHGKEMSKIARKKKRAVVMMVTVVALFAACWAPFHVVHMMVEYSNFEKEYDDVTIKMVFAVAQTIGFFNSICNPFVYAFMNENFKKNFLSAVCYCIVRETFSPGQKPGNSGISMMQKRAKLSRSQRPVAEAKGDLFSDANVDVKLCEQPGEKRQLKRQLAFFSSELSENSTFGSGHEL

Assay [10] addresses Somatostatin receptor 2 (mouse) (UniProt P30875).
The target in assay [11] is T4, Somatostatin receptor 5 (mouse) (UniProt O08858).
T4 sequence: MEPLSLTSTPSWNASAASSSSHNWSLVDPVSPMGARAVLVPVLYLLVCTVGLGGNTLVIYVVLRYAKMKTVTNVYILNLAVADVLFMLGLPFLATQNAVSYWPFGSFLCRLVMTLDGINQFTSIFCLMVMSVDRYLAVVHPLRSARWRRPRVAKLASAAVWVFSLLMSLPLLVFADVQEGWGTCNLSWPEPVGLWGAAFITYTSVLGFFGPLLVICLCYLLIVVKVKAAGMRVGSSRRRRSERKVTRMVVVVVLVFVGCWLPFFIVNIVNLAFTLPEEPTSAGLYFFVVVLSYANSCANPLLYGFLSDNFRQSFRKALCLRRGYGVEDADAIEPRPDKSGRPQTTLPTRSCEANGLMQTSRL

Results are given in words; binding and its absence hold for the method and conditions named. In cells and extracts the contact can be indirect. Some binding calls cover weakened binding; strength is not graded here.

B1: melanocortin receptor accessory protein MRAP1 (protein, UniProt Q9D159 1-127)
chain: MANGTDASVPLTSYEYYLDYIDLIPVDEKKLKANKHSIVIALWLSLATFVVLLFLILLYMSWSGSPQMRHSPQPQPICSWTHSFNLPLCLRRASLQTTEEPGRRAGTDQWLTQQSPSASAPGPLALP
With B1, the binding result in assay [1] is “binds”; in assay [2], “binds”; in [3], “binds”; in assay [4], “binds”; in assay [5], “no binding”; in assay [6] it was “binds”. The binding entry in assay [7] was “binds”; in assay [8], “binds”; in [9], “no binding”; in [10] it was “no binding”; in assay [11] it was “binds”.

B2: melanocortin receptor accessory protein MRAP2 (protein, UniProt D3Z1Q2 1-207)
chain: MEMSAQRLASNRTSPQSPSNSDYTWEYEYYEIGPVSFEGLKAHKYSIVIGFWVGLAVFVIFMFFVLTLLTKTGAPHQDNAESSERRFRMNSFVSDFGKPLESDKVFSRQGNEESRSLFHCYINEVEHLDRVKVCHQTTAIDSDVHLQEASRSSGRPEEELARFMKFDIPNFVNTEQSSFGEDDLLISEAPVLLENKPVSQTSRIDLD
Take B2: the binding entry in [1] is recorded as “binds”; in assay [2], “binds”; in assay [3] it was “binds”; in assay [4] it was “binds”; in assay [5] it was “no binding”; in assay [6], “binds”. Moreover, the binding result in assay [7], in assay [8], in assay [9], in assay [10] and in [11] was “binds” throughout.
